{"source": "ChEMBL document CHEMBL1201862", "about": "“PubChem BioAssay data set” (2004)", "note": "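48-hour exposure; five concentrations; linearly interpolated endpoints. The concentration for 50% growth inhibition is given as GI50.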 Activity calls are given as the source filed them. No stated cut-off is given here; in the data, active = GI50 up to about 1.1 µM and inactive = higher."}
{"system": "NCI-H322M", "test": "growth of human tumour cells (NCI), 48 h"}
{"compound": "CSCCC(N)C(=O)NCCNc1ccc(NCCNC(=O)C(N)CCSC)c2c1C(=O)c1ccccc1C2=O", "note": "(stereo not given)", "GI50": "active: 0.923 µM"}
{"compound": "COc1cc(/C=C2\\C[C@H]3[C@@H]4CCc5cc(OCCN6CCCC6)ccc5[C@H]4CC[C@]3(C)C2=O)cc(OC)c1OC", "GI50": "inactive: 2.87 µM"}
{"compound": "COc1ccc(C(=O)Nc2ccccc2C#N)cc1", "GI50": "inactive: > 100 µM"}
{"compound": "CCOC(=O)C(Cc1ccc(OC(=O)c2ccc(OC)cc2)cc1)NC(=O)C(F)(F)F", "note": "(stereo not given)", "GI50": "inactive: > 100 µM"}
{"compound": "CSc1ncc2c(n1)-c1ccccc1OC2N1CCCCC1", "note": "(stereo not given)", "GI50": "inactive: 46.2 µM"}
{"compound": "Cc1ccc(NC(=S)NNC(=O)c2cc(-c3ccccc3)nc3ccccc23)cc1", "GI50": "inactive: 14 µM"}
{"compound": "C=CCc1ccccc1CC1(OCC)OC(=O)c2ccccc21", "note": "(stereo not given)", "GI50": "inactive: > 100 µM"}
{"compound": "NC(Cc1ccc(OCc2ccccc2)cn1)C(=O)OCc1ccccc1", "note": "(stereo not given)", "GI50": "inactive: > 100 µM"}
{"compound": "COc1c(OC2OC(CO)C(O)C(O)C2O)cc2c(c1OC)-c1ccc(OC)c(=O)cc1C(NC(C)=O)CC2", "note": "(stereo not given)", "GI50": "inactive: > 99.8 µM"}
{"compound": "C[C@@H]1C[C@](O)([C@@H](C)Cl)C(=O)O[C@@H]2CCN3CC=C(COC(=O)[C@]1(C)O)[C@H]23", "GI50": "inactive: > 100 µM"}
{"compound": "CCOC(=O)c1cc2cc(C)cc(C(=O)c3ccc([N+](=O)[O-])cc3)c2[nH]1", "GI50": "inactive: > 100 µM"}
{"compound": "COc1ccc(/C=N/N=C(\\N)NO)cc1F", "GI50": "inactive: 11.1 µM"}
{"compound": "Cc1cc(S(=O)(=O)Nc2cc(N)n[nH]2)c(SCc2nc(N)nc(N(C)C)n2)cc1Cl", "GI50": "inactive: > 10 µM"}
{"compound": "CC(=O)N1C(c2[nH]c3ccccc3c2-c2ccccc2)CCN1c1ccccc1", "note": "(stereo not given)", "GI50": "inactive: > 10 µM"}
{"compound": "COC(=O)c1ccc(C)cc1CC1Cc2cc(C)ccc2C1=O", "note": "(stereo not given)", "GI50": "inactive: > 100 µM"}
{"compound": "C=CCc1c(O)c2ccccc2[nH]c1=O", "GI50": "inactive: > 10 µM"}
{"compound": "Cc1ccc2nc(Cl)c(/C=N/N3C(=O)/C(=C/c4ccccc4S)N=C3c3ccccc3)cc2c1", "GI50": "inactive: > 100 µM"}
{"compound": "O=C(Nn1c(-c2ccccc2)nc2ccccc2c1=O)c1ccccn1", "GI50": "inactive: > 100 µM"}
{"compound": "C=C(C)[C@@H]1CCC2=C[C@H](OC2=O)[C@@]2(C)C[C@@H]2C2=CC(C)=C(O2)[C@H]1O", "GI50": "inactive: > 75 µM"}
{"compound": "CCN(CC)c1ccc2cc(C(=O)Nc3cccc4ccccc34)c(=N)oc2c1", "GI50": "inactive: > 100 µM"}
{"compound": "Oc1ccc2ccccc2c1-c1c(Nc2ccccc2)ccc2ccccc12", "GI50": "inactive: 14.6 µM"}
{"compound": "COC(=O)[C@H](Cc1c[nH]c2ccccc12)NC(=O)OCC1OC(n2cc(C)c(=O)[nH]c2=O)CC1N=[N+]=[N-]", "note": "(stereo not given in full)", "GI50": "inactive: 30.2 µM"}
{"compound": "COc1cc2c(cc1OC)C(Cc1ccc(Oc3cc(CC4c5cc(OC)c(OC)cc5CCN4C)ccc3O)cc1)N(C)CC2", "note": "(stereo not given)", "GI50": "inactive: > 100 µM"}
{"compound": "Clc1sc(Cl)c2c1[C@H](Cl)C[C@@H]2Cl", "GI50": "inactive: 56.5 µM"}
{"compound": "c1ccc(/N=C2/SC3=Nc4cccc5cccc(c45)N3/C2=N/c2ccccc2)cc1", "GI50": "inactive: > 100 µM"}
{"compound": "Cc1cc(C)c(S(=O)(=O)N[C@@H](/C=C(\\Br)CO)C(C)C)c(C)c1", "GI50": "inactive: 52.6 µM"}
{"compound": "[N-]=[N+]=C1N=CN=C1c1nc[nH]n1", "GI50": "inactive: > 100 µM"}
{"compound": "CC1(C)Cc2c(sc3[nH]c(=S)[nH]c(=S)c23)CS1", "GI50": "inactive: 46 µM"}
{"compound": "O=C1c2cc([N+](=O)[O-])sc2C(=O)c2c([N+](=O)[O-])csc21", "GI50": "inactive: 1.8 µM"}
{"compound": "O=[N+]([O-])c1cccc(C(O)/C(=N/Nc2ccccc2)C2Nc3ccc([N+](=O)[O-])cc3N=C2O)c1", "note": "(stereo not given)", "GI50": "inactive: 59.2 µM"}
{"compound": "COc1ccc(NC(=S)c2ccc(CN3CCCCC3)s2)cc1", "GI50": "inactive: 16.5 µM"}
{"compound": "O=C1NC(Nc2ccccc2)=N/C1=C\\c1c(Cl)cccc1Cl", "GI50": "inactive: 24.5 µM"}
{"compound": "C=CCCCC1CCCNC1=O", "note": "(stereo not given)", "GI50": "inactive: > 100 µM"}
{"compound": "N#CCCc1nc2ccc(Br)cc2c(=O)n1CCO", "GI50": "inactive: > 100 µM"}
{"compound": "C#CCSC(C=C=C)P(=O)(OC(C)C)OC(C)C", "note": "(stereo not given)", "GI50": "inactive: > 100 µM"}
{"compound": "O=c1oc2cc(O)ccc2c2[nH]c3cc(O)ccc3c12", "GI50": "inactive: 25.2 µM"}
{"compound": "COC(C)(C)[C@H](O)C(O)CC(C)[C@@H]1CCC23CC12CCC1[C@@]2(C)CCC(OC(C)=O)C(C)(C)C2CC(OC2OC(COC(C)=O)C(O)C(O)C2O)[C@]13C", "note": "(stereo not given in full)", "GI50": "inactive: 1.61 µM"}
{"compound": "C=C[C@]1(C)CCC2=C(CCC3C2(C)CCC[C@@]3(C)COC(C)=O)C1", "note": "(stereo not given in full)", "GI50": "inactive: 27.6 µM"}
{"compound": "C/C=C/C=C\\C1OC(O)([C@H](CC)C(=O)NC/C=C/C=C(\\C)[C@H](OC)C(C)C2OC(\\C=C/C=C/C=C(\\C)C(=O)c3c(O)ccn(C)c3=O)[C@H](O)[C@@H]2O)C(O)C(O)C1(C)C", "note": "(stereo not given in full)", "GI50": "inactive: > 100 µM"}
{"compound": "Cc1cc(C(=C2C=CC(=[N+](C)C)C=C2)c2ccc([N+](C)(C)C)cc2)ccc1N(C)C", "GI50": "inactive: 5.74 µM"}
{"compound": "COC(=O)CCC(C)C1CCC2C3C(C[C@H](OC(C)=O)[C@]12C)[C@@]1(C)CCC2(C[C@H]1C[C@H]3OC(C)=O)OOC1(CC[C@]3(C)C4C[C@H](OC(C)=O)[C@]5(C)C(C(C)CCC(=O)OC)CCC5C4[C@H](OC(C)=O)C[C@@H]3C1)OO2", "note": "(stereo not given in full)", "GI50": "inactive: > 100 µM"}
{"compound": "Nc1c(S(=O)(=O)O)cc(Nc2cccc(S(N)(=O)=O)c2)c2c1C(=O)c1ccccc1C2=O", "GI50": "inactive: 30.3 µM"}
{"compound": "NCCCNCCCCN1CC1", "GI50": "active: 0.92 µM"}
{"compound": "COC1=CC(=O)c2c(CCNC(=O)OCc3ccccc3)n[nH]c2C1=O", "GI50": "inactive: 19.7 µM"}
{"compound": "CCCCCC(=O)N[C@H]1CCc2cc(O)c(O)c(O)c2-c2ccc(SC)c(=O)cc21", "GI50": "inactive: > 58.5 µM"}
